{
  "source": "the supplement of paper PMC11417369",
  "note": "The other results are listed elsewhere or left out.",
  "data": [
    {"test_system": "PfHDP1 homeodomain (GST-tagged)", "test": "gcPBM binding intensity (ln(normalized median fluorescence intensity)); higher = stronger DNA binding", "how_it_was_run": "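Binding intensity is the highest Masliner-normalised natural-log median intensity over replicate spots in either probe orientation. To obtain it, GST-tagged P. falciparum DNA-binding domains made in E. coli were incubated for 1 h on an Agilent 4 × 180k array of primer-extended double-stranded 36-bp intergenic genomic probes plus negative controls. Detection used Alexa488 anti-GST antibody with scanning at 488 nm.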", "values": [
      {"sequence": "TATATATATATTTATACACACATTAGTGTATACATG [CACACA_site2950]", "gcPBM binding intensity (ln)": 8.57},
      {"sequence": "AAATAAATGTTATGCATACACACTTTATACCTATTT [CACACA_site3779]", "gcPBM binding intensity (ln)": 7},
      {"sequence": "TCTTTTATGTTTGTTTTTCCCTTTTTTTATGTTCCC [CACACA_negctrl_site1722]", "gcPBM binding intensity (ln)": 6.6},
      {"sequence": "ATATATATTAGGTATTGTACTTATATGCATATAAGT [XGTACX_site2700]", "gcPBM binding intensity (ln)": 6.74},
      {"sequence": "AATGAATGAATTATTTTGCGCTTATTATAGGACGAA [XGTACX_negctrl_site218]", "gcPBM binding intensity (ln)": 6.77},
      {"sequence": "AAAAACTATTGTAGGACACACAAAATTCCAATTTTA [CACACA_site1701]", "gcPBM binding intensity (ln)": 6.26},
      {"sequence": "ATATATATAAAACACACACACACATGTTTTAAAACT [CACACA_site78]", "gcPBM binding intensity (ln)": 7.01},
      {"sequence": "AAGTAATTTATGCATACACACATATATAAATATGTA [CACACA_site7813]", "gcPBM binding intensity (ln)": 6.91},
      {"sequence": "TATATATATATATACACACACACCGTCCGTGTTAAA [CACACA_site2979]", "gcPBM binding intensity (ln)": 9.32},
      {"sequence": "ATATATTAAAACCTAGTGCATTTGTACATATTTCAA", "gcPBM binding intensity (ln)": 8.12},
      {"sequence": "TTATACAGGACAATAGTGCACATAAATATATGTATA", "gcPBM binding intensity (ln)": 10},
      {"sequence": "GCAGTCAAAAAGGAAAATATAAAAAAAGTATATGTG [GTGCAC_negctrl_site95]", "gcPBM binding intensity (ln)": 6.18},
      {"sequence": "AGGTTAAAACATATATATATATATATATATATATAT [XGTACX_negctrl_site333]", "gcPBM binding intensity (ln)": 9.27},
      {"sequence": "TTTTTTTATTATTAAAGTACTAAAAAATGAAAACTG [XGTACX_site6758]", "gcPBM binding intensity (ln)": 6.33},
      {"sequence": "TGGGAATAAAAACACACACACACACCGATATATATA [CACACA_site5875]", "gcPBM binding intensity (ln)": 6.93},
      {"sequence": "TATAATAAAAAATGTACACACATAAGAAAATTTAAT [CACACA_site2901]", "gcPBM binding intensity (ln)": 6.73},
      {"sequence": "ACATAATAAAAAAAACGTACAAATAGGTTTTTCATA [XGTACX_site6645]", "gcPBM binding intensity (ln)": 6.1},
      {"sequence": "GACTATTTTAATATTTTACACACCATGTAAAATATA [CACACA_site9050]", "gcPBM binding intensity (ln)": 6.75},
      {"sequence": "ATTTTTTAAAATATTTGTACATATATAATGCATATA [XGTACX_site7026]", "gcPBM binding intensity (ln)": 6.95},
      {"sequence": "CACAGACACGGACACACACACACACCGATATATATA [CACACA_site4353]", "gcPBM binding intensity (ln)": 6.99},
      {"sequence": "TAAATACTTATATGTACACACATATAGATATATATT [CACACA_site2553]", "gcPBM binding intensity (ln)": 6.34},
      {"sequence": "ATATAAATAAATGTATGTACATATATTTATATGCAT [XGTACX_site4185]", "gcPBM binding intensity (ln)": 6.37},
      {"sequence": "ATCTGTACAGTTTTTGCACACATATAAATAAAAAAA [CACACA_site9198]", "gcPBM binding intensity (ln)": 10.7},
      {"sequence": "TATTTACAAATAAAAAGTACATAAACTAATATCTTT [XGTACX_site2181]", "gcPBM binding intensity (ln)": 5.89},
      {"sequence": "TATATTAGAAAGGATACACACATATATAAATATCTA [CACACA_site6411]", "gcPBM binding intensity (ln)": 6.15},
      {"sequence": "TTGTTTGTAAACAGATGTACATATAAAAATATATAT [XGTACX_site3370]", "gcPBM binding intensity (ln)": 6.48},
      {"sequence": "ATATATATATATATATGTACATATATTTGTAATGTC [XGTACX_site8074]", "gcPBM binding intensity (ln)": 9.2},
      {"sequence": "TTTATTATGTAAGCATGTACATGATGTATATATTTA [XGTACX_site5021]", "gcPBM binding intensity (ln)": 6.68},
      {"sequence": "TCAGATCCATAGAAGGTGCAAATAACAAAAATACAA [GTGCAC_site9610]", "gcPBM binding intensity (ln)": 9.59},
      {"sequence": "TAATTTTTCTTATATAGTACACAAAAAGAAAATTAC [XGTACX_site6393]", "gcPBM binding intensity (ln)": 6.57},
      {"sequence": "TATGAACACCCAAATACACACACTCAAAAAAAAAAA [CACACA_site5466]", "gcPBM binding intensity (ln)": 6.42},
      {"sequence": "AAAATGTTTTTATCCAGTACATAAATATATATATAT [XGTACX_site7398]", "gcPBM binding intensity (ln)": 8.6},
      {"sequence": "GAAAAATTGAATTTGGGTACATATAAATATTATATT [XGTACX_site2363]", "gcPBM binding intensity (ln)": 6.13},
      {"sequence": "ATAAATATTAGCAGTTGTACAATAAATATATGTAAT [XGTACX_site2534]", "gcPBM binding intensity (ln)": 6.86},
      {"sequence": "TTCCCTATATAGAGCATGCACTATATTCAAATGATG", "gcPBM binding intensity (ln)": 8.54},
      {"sequence": "TTAGATATAAAAGCATGTACTTGTATAAAATATATA [XGTACX_site8272]", "gcPBM binding intensity (ln)": 6.14},
      {"sequence": "TTATCAAATGAGTGTTGTACGTCTTTTGAAATACCA [XGTACX_site8804]", "gcPBM binding intensity (ln)": 6.04},
      {"sequence": "AAGGCAAACAAACACACACACATATATACATATATA [CACACA_site2122]", "gcPBM binding intensity (ln)": 6.79},
      {"sequence": "TTTATACAAACAACTTTATATTAATGTTTAACGGAG [GTGCAC_negctrl_site396]", "gcPBM binding intensity (ln)": 6.29},
      {"sequence": "TCTTTCTAAAGATGTAGTACAAAATAAATATAATAT [XGTACX_site6564]", "gcPBM binding intensity (ln)": 6.87},
      {"sequence": "TAATATGCTCATGTAACACACATTTGCATATTTTTC [CACACA_site1357]", "gcPBM binding intensity (ln)": 9.63},
      {"sequence": "TTATCACACCTTTTTTGTACGAAATAAAAAAAAAAA [XGTACX_site5564]", "gcPBM binding intensity (ln)": 6.08},
      {"sequence": "GTGCAAAATATTTTTACACACAAATTCTTACAACAG [CACACA_site7556]", "gcPBM binding intensity (ln)": 7.77},
      {"sequence": "ATATCTATGTTTATCTCGAATAACTTAAAAAATTAT [CACACA_negctrl_site1131]", "gcPBM binding intensity (ln)": 6.4},
      {"sequence": "TAGAACAAATAAAACACACACATATAAATATAGATG [CACACA_site7325]", "gcPBM binding intensity (ln)": 6.52}
    ]}
  ]
}
